Among the data in the antibiotic and cytotoxicity screens of Wong et al. (2023) are cytotoxicity call and growth inhibition call values, retold here.

One experiment has as its system HSkMC. The experiment can be described thus: cytotoxicity call (relative viability < 0.9). The note with it: 10 µM.
The test system of the next experiment is HepG2. Nature of the experiment: cytotoxicity call (relative viability < 0.9). The settings on record: 10 µM.
The subject of another experiment is S. aureus RN4220. Nature of the experiment: growth inhibition call (relative growth <= 0.2). The note with it: 50 µM.

This is one part of the list.

As for `Cn1c(=O)c2c(NCCc3ccc(S(N)(=O)=O)cc3)ccnc2n(C)c1=O`, the cytotoxicity call in the experiment on HSkMC and in the experiment on HepG2 was “inactive” throughout. Moreover, the growth inhibition call with S. aureus RN4220 is “inactive”.

With `C[C@H](CO)N1C[C@H](C)[C@@H](CN(C)CC2CC2)Oc2ccc(NS(=O)(=O)c3ccc(F)cc3)cc2C1=O`, the cytotoxicity call with HSkMC and in the experiment on HepG2 was “inactive” in each case. Besides, the growth inhibition call with S. aureus RN4220 is “inactive”.

With `C[C@H](CO)N1C[C@H](C)[C@@H](CN(C)S(=O)(=O)c2cn(C)cn2)OCCCC[C@H](C)Oc2ccc(NS(=O)(=O)c3ccccc3)cc2C1=O`, the cytotoxicity call with HSkMC and in the experiment on HepG2 was “inactive” each time. The growth inhibition call in the experiment with S. aureus RN4220 is “inactive”.

Consider `CCOC(=O)C(CCc1ccccc1)NC(C)C(=O)N1C(C(=O)O)CC2CCCC21` (stereo not drawn), for which the cytotoxicity call with HSkMC and with HepG2 was “inactive” throughout. Further, the growth inhibition call in the experiment on S. aureus RN4220 was “inactive”.

Regarding `OC[C@H]1O[C@@H](Oc2ccc(O)cc2)[C@H](O)[C@@H](O)[C@@H]1O`, the cytotoxicity call in the experiment on HSkMC and in the experiment with HepG2 was “inactive” in each case. Also, the growth inhibition call in the experiment on S. aureus RN4220 was “inactive”.

Turning to `C[C@@H]1CN([C@H](C)CO)C(=O)c2cc(NC(=O)C3CCCCC3)ccc2O[C@@H](C)CCCCO[C@H]1CN(C)C(=O)Nc1ccc2c(c1)OCO2`, the cytotoxicity call in the experiment on HSkMC and in the experiment with HepG2 was “inactive” throughout. Further, in the experiment with S. aureus RN4220, the growth inhibition call was “inactive”.

Regarding `C[C@@H]1CN([C@@H](C)CO)C(=O)c2cc(NC(=O)Cc3cn(C)c4ccccc34)ccc2O[C@@H]1CN(C)Cc1ccc(-c2ccccc2)cc1`, the cytotoxicity call in the experiment with HSkMC was “inactive”. Further, the cytotoxicity call in the experiment on HepG2 is “active”. For the same compound, the growth inhibition call in the experiment with S. aureus RN4220 is “inactive”.

Consider `Cc1noc(C)c1NC(=O)Nc1ccc2c(c1)C(=O)N([C@@H](C)CO)C[C@H](C)[C@@H](CN(C)Cc1ccccc1)OCCCC[C@@H](C)O2`, for which the cytotoxicity call in the experiment on HSkMC and with HepG2 was “inactive” in each case. Also, in the experiment with S. aureus RN4220, the growth inhibition call was “inactive”.

Turning to `C[C@H]1CN([C@@H](C)CO)C(=O)c2cc(Br)cnc2O[C@H]1CN(C)S(=O)(=O)c1ccccc1F`, the cytotoxicity call in the experiment on HSkMC and in the experiment on HepG2 was “inactive” in each case. For the same compound, the growth inhibition call in the experiment with S. aureus RN4220 was “inactive”.

`c1cc([C@@H]2CNCCN2)[nH]n1`: the cytotoxicity call with HSkMC and with HepG2 was “inactive” each time. Further, the growth inhibition call in the experiment with S. aureus RN4220 is “inactive”.

As to `COc1ccc(NC(=O)Nc2ccc3c(c2)C(=O)N([C@H](C)CO)C[C@H](C)[C@H](CN(C)S(C)(=O)=O)O3)cc1`, the cytotoxicity call in the experiment on HSkMC and in the experiment on HepG2 was “inactive” throughout. Besides, the growth inhibition call in the experiment on S. aureus RN4220 was “inactive”.

For `C[C@H]1CN([C@@H](C)CO)C(=O)c2cccc(NC(=O)C3CC3)c2O[C@H]1CN(C)S(=O)(=O)c1cccs1`, the cytotoxicity call with HSkMC and in the experiment with HepG2 was “inactive” each time. The growth inhibition call in the experiment with S. aureus RN4220 is “inactive”.

In the case of `CO[C@@H](CN(C)C(=O)c1ccc2c(c1)OCO2)[C@@H](C)CN([C@@H](C)CO)S(=O)(=O)c1ccc(F)cc1`, the cytotoxicity call with HSkMC and in the experiment on HepG2 was “inactive” each time. Moreover, the growth inhibition call in the experiment with S. aureus RN4220 was “inactive”.

Take `Cc1ccc(S(=O)(=O)N2C[C@H](O)COC[C@H]3O[C@@H](CC(=O)NCc4ccc(Cl)c(Cl)c4)CC[C@@H]32)cc1`: the cytotoxicity call with HSkMC was “inactive”. In addition, in the experiment with HepG2, the cytotoxicity call is “active”. In addition, the growth inhibition call in the experiment on S. aureus RN4220 is “inactive”.

For `CNC[C@H]1Oc2c(NS(=O)(=O)c3cn(C)cn3)cccc2C(=O)N([C@@H](C)CO)C[C@H]1C`, the cytotoxicity call in the experiment on HSkMC and with HepG2 was “inactive” in each case. Further, the growth inhibition call in the experiment on S. aureus RN4220 is “inactive”.

As to `COc1ccc(S(=O)(=O)N(C)C[C@@H]2Oc3ccc(NC(=O)Cc4ccccc4)cc3CC(=O)N([C@@H](C)CO)C[C@@H]2C)cc1`, the cytotoxicity call with HSkMC and in the experiment with HepG2 was “inactive” in each case. Besides, the growth inhibition call with S. aureus RN4220 was “inactive”.

As for `O=c1cc(-c2ccc(O)cc2)oc2cc(O)cc(O)c12`, the cytotoxicity call in the experiment on HSkMC and with HepG2 was “inactive” in each case. In addition, the growth inhibition call with S. aureus RN4220 is “inactive”.

As to `CC(C)N1CC[C@@H](CN(C)Cc2ccc(Oc3ccccc3)cc2)Oc2c(NC(=O)c3ccncc3)cccc2C1=O`, the cytotoxicity call in the experiment on HSkMC and with HepG2 was “inactive” in each case. Moreover, the growth inhibition call with S. aureus RN4220 is “inactive”.

With `C[C@H]1CN([C@@H](C)CO)C(=O)c2cc(NC(=O)CCCCCC(=O)Nc3ccccc3N)ccc2O[C@H]1CN(C)CC1CCCCC1`, the cytotoxicity call with HSkMC was “inactive”. Moreover, the cytotoxicity call with HepG2 is “active”. Further, in the experiment with S. aureus RN4220, the growth inhibition call was “inactive”.

For `CC(C)(C)[C@H]1C=C(C(=O)N2CCN(Cc3ccccc3)CC2)O[C@@H](OCc2ccc(COC(=O)NCCCCCC(=O)NO)cc2)C1`, the cytotoxicity call in the experiment on HSkMC and with HepG2 was “inactive” each time. Moreover, in the experiment on S. aureus RN4220, the growth inhibition call is “inactive”.

`C[C@@H]1CCCCO[C@H](CN(C)Cc2ccc3c(c2)OCO3)[C@@H](C)CN([C@@H](C)CO)C(=O)c2cc(NC(=O)Nc3ccc(C(F)(F)F)cc3)ccc2O1`: the cytotoxicity call in the experiment on HSkMC and in the experiment on HepG2 was “active” in each case. Also, the growth inhibition call in the experiment with S. aureus RN4220 was “inactive”.

For `C[C@@H](N)c1cnn(-c2ccc(F)cc2)c1`, the cytotoxicity call in the experiment with HSkMC and in the experiment on HepG2 was “inactive” in each case. The growth inhibition call in the experiment on S. aureus RN4220 was “inactive”.

On to `C[C@@H]1CCCCO[C@H](CN(C)C(=O)NC2CCCCC2)[C@H](C)CN([C@H](C)CO)C(=O)c2cc(NS(=O)(=O)c3ccccc3)ccc2O1`, for which the cytotoxicity call in the experiment with HSkMC and in the experiment on HepG2 was “inactive” each time. Also, the growth inhibition call in the experiment on S. aureus RN4220 is “inactive”.

Regarding `C[C@@H]1CN([C@H](C)CO)C(=O)Cc2cc(NC(=O)Nc3ccc(F)cc3)ccc2O[C@@H]1CN(C)S(=O)(=O)c1cn(C)cn1`, the cytotoxicity call in the experiment with HSkMC and in the experiment on HepG2 was “inactive” in each case. Besides, the growth inhibition call in the experiment with S. aureus RN4220 was “inactive”.

In the case of `CNCCC(Oc1ccc(C(F)(F)F)cc1)c1ccccc1.Cl` (stereo not drawn), the cytotoxicity call in the experiment on HSkMC was “inactive”. Besides, in the experiment on HepG2, the cytotoxicity call is “active”. The growth inhibition call in the experiment with S. aureus RN4220 was “inactive”.

Take `C[C@H](CO)N1C[C@H](C)[C@H](CN(C)C(=O)Nc2cccc3ccccc23)Oc2ccc(NC(=O)Nc3ccc4c(c3)OCO4)cc2CC1=O`: the cytotoxicity call in the experiment with HSkMC and in the experiment with HepG2 was “inactive” each time. Moreover, the growth inhibition call in the experiment with S. aureus RN4220 was “inactive”.

As for `C[C@H]1CN([C@@H](C)CO)C(=O)c2cc(NC(=O)CCCN(C)C)ccc2O[C@@H]1CN(C)Cc1ccc2c(c1)OCO2`, the cytotoxicity call in the experiment on HSkMC and in the experiment on HepG2 was “inactive” throughout. Also, the growth inhibition call with S. aureus RN4220 is “inactive”.

As for `COC(=O)c1cn(CC(=O)N2CCN(C)CC2)nn1`, the cytotoxicity call in the experiment on HSkMC and in the experiment with HepG2 was “inactive” in each case. Further, the growth inhibition call in the experiment on S. aureus RN4220 was “inactive”.

In the case of `OCc1cccc(-c2ccsc2)c1`, the cytotoxicity call in the experiment on HSkMC and in the experiment with HepG2 was “inactive” in each case. In addition, in the experiment with S. aureus RN4220, the growth inhibition call was “inactive”.

Turning to `COc1ccc2cc(CCC(C)=O)ccc2c1`, the cytotoxicity call in the experiment on HSkMC and with HepG2 was “inactive” throughout. The growth inhibition call with S. aureus RN4220 is “inactive”.

On to `COc1ccc(S(=O)(=O)Nc2ccc3c(c2)CC(=O)N([C@@H](C)CO)C[C@@H](C)[C@H](CN(C)C(=O)NC(C)C)O3)cc1`, for which the cytotoxicity call with HSkMC and with HepG2 was “inactive” each time. For the same compound, in the experiment on S. aureus RN4220, the growth inhibition call is “inactive”.

Take `CO[C@@H]1CN(C)C(=O)c2ccc(NC(=O)NC(C)C)cc2OC[C@H](C)N(Cc2ccc(-c3ccccn3)cc2)C[C@H]1C`: the cytotoxicity call with HSkMC and with HepG2 was “inactive” in each case. The growth inhibition call with S. aureus RN4220 was “inactive”.

With `C[C@H](CO)N1C[C@H](C)[C@H](CN(C)S(=O)(=O)c2cn(C)cn2)Oc2c(NS(=O)(=O)c3ccc(F)cc3)cccc2C1=O`, the cytotoxicity call with HSkMC and in the experiment with HepG2 was “inactive” each time. In the experiment on S. aureus RN4220, the growth inhibition call was “inactive”.

As to `NC/C=C/C(=O)O`, the cytotoxicity call in the experiment with HSkMC and with HepG2 was “inactive” each time. Also, the growth inhibition call with S. aureus RN4220 was “inactive”.

On to `Cc1noc(C)c1NC(=O)Nc1ccc2c(c1)CC(=O)N([C@@H](C)CO)C[C@@H](C)[C@H](CN(C)S(=O)(=O)c1cccs1)O2`, for which the cytotoxicity call in the experiment with HSkMC and with HepG2 was “inactive” in each case. For the same compound, the growth inhibition call in the experiment on S. aureus RN4220 is “inactive”.

Consider `CC1(N)CCN(c2cccnc2NC(=O)c2nc(-c3ncccc3C(F)(F)F)cnc2N)CC1`, for which the cytotoxicity call with HSkMC and in the experiment with HepG2 was “inactive” each time. Besides, the growth inhibition call in the experiment on S. aureus RN4220 was “inactive”.

In the case of `C[C@H](CO)N1C[C@H](C)[C@@H](CN(C)S(=O)(=O)c2cn(C)cn2)Oc2ccc(NC(=O)c3ccncc3)cc2CC1=O`, the cytotoxicity call in the experiment with HSkMC and in the experiment with HepG2 was “inactive” each time. For the same compound, the growth inhibition call with S. aureus RN4220 was “inactive”.

As for `C[C@H]1CN([C@@H](C)CO)C(=O)c2cc(-c3cccc(C#N)c3)cnc2O[C@H]1CN(C)C(=O)c1cnccn1`, the cytotoxicity call in the experiment on HSkMC and with HepG2 was “inactive” throughout. Besides, the growth inhibition call in the experiment with S. aureus RN4220 is “inactive”.

On to `C[C@H](CO)N1C[C@H](C)[C@@H](CN(C)C(=O)Nc2ccc3c(c2)OCCO3)OCc2cn(nn2)CCCC1=O`, for which the cytotoxicity call in the experiment on HSkMC and in the experiment with HepG2 was “inactive” each time. Besides, the growth inhibition call in the experiment on S. aureus RN4220 was “inactive”.

For the compound `C[C@H](CO)N1C[C@H](C)[C@@H](CN(C)Cc2ccc(Cl)c(Cl)c2)Oc2ccc(NS(=O)(=O)c3ccc(Cl)cc3)cc2CC1=O`, the cytotoxicity call in the experiment with HSkMC and in the experiment on HepG2 was “inactive” in each case. Besides, the growth inhibition call in the experiment on S. aureus RN4220 is “inactive”.

With `C[C@@H]1CN([C@H](C)CO)C(=O)c2cc(NC(=O)Nc3cccc4ccccc34)ccc2O[C@H]1CN(C)Cc1ccc2c(c1)OCO2`, the cytotoxicity call in the experiment on HSkMC (human skeletal muscle cells) and with HepG2 was “inactive” in each case. The growth inhibition call in the experiment with S. aureus RN4220 is “inactive”.
